# Measurements published in PubChem BioAssay AID881 (National Center for Advancing Translational Sciences (NCATS), 2007).
# In all, about 110,000 compounds went through this assay and about 610 (0.55%) were called active. The shares of active, inactive and inconclusive entries below differ from those in the screen. The call rests on the fitted dose curve; in most records, active means well fitted inhibition curve with a large enough effect; inconclusive means small, poorly fitted or top-dose-only effect; inactive means no such curve, though single readings can be large or run the other way. A potency beside an inconclusive call is a rough fit, not a confirmed value.
# Target: Polyunsaturated fatty acid lipoxygenase ALOX15B (Homo sapiens) (UniProt O15296)
# Experiment: qHTS Assay for Inhibitors of 15-hLO-2 (15-human lipoxygenase 2); further: nearly all actives have a fitted effect of over 60% in size
# Conditions: purified 15hLO-2, xylenol orange hydroperoxide absorbance; activity change, negative = inhibition: at 57.1 µM (top of the series) unless noted
# In short: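 Screening format was qHTS against 50 nM purified 15hLO-2 in Hepes pH 7.5 with detergent. Activity follows hydroperoxide formation from 45 uM arachidonic acid, measured as 573:405 nm absorbance ratio of the ferric-xylenol orange complex.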
# On the % scale 0 is the no-effect control and ±100 the full control effect; potency means the concentration at half of the fitted maximal effect; tags describe the fitted curve by direction and shape.
# Sequence of UniProt O15296 (O15296 whole entry, looked up): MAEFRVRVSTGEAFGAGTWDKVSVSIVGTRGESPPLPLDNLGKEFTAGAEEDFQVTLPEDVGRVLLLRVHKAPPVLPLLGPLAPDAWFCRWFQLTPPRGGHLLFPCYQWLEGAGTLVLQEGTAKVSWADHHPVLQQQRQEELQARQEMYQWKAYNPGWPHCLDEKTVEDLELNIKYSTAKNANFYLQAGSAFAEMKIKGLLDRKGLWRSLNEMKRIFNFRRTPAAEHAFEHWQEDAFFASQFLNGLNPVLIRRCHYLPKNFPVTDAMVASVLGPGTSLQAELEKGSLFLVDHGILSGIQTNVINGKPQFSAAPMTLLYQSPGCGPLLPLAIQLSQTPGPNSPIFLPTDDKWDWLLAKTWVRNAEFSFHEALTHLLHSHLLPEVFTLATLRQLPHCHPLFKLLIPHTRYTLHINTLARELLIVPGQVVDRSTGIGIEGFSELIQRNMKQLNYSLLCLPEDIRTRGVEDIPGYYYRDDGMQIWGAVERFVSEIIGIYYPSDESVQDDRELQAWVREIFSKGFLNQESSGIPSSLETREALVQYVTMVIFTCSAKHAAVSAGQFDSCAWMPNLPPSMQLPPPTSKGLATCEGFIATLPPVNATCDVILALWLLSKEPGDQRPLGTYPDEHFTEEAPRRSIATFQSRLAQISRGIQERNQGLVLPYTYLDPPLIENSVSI
Compound,Potency,"activity change, negative = inhibition"
O=[N+]([O-])c1ccc(N2CCN(C(=S)NC3CCCCC3)CC2)cc1,"inconclusive: 25.1 µM [inhibitor, partial curve]",
Cc1cc(Cl)ccc1OCCCC(=O)NO,"inconclusive: 15.8 µM [inhibitor, partial curve]",
Cc1ccccc1OCCCC(=O)Nc1ccccc1C(F)(F)F,,inactive: -8.41%
COc1ccc(-c2coc3cc(O)ccc3c2=O)c(OC)c1O,,inactive: -8.51%
COc1ccc(-n2nc(C(=O)Nc3ccc(OC)c(OC)c3)c3c4ccccc4n(C)c3c2=O)cc1,"inconclusive: 25.1 µM [inhibitor, single point]",
COc1cccc(OCCSc2nnc3sc4ccccc4n23)c1,,inactive: 1.37%
COc1ccccc1CNc1nc(-c2ccccc2CN(C)C)nc2ccccc12,,inactive: 6.45%
C=CCNC(=O)c1cc([N+](=O)[O-])cc2c(=O)[nH]c(Nc3ccc(Cl)c(Cl)c3)nc12,"inconclusive: 10 µM [inhibitor, partial curve]",
C/C(CC(=O)Nc1ccc(OCc2ccccc2)cc1)=N\NC(=O)C(=O)Nc1ccc(C)c(Cl)c1,"inconclusive: 12.6 µM [inhibitor, partial curve]",
CC1CC[C@@]2(OC1)OC1CC3C4CC=C5CC(O)CC[C@@]5(C)C4CC[C@]3(C)C1C2C (stereo partly drawn),,inactive: 3.2%
Cc1cc(OC(=O)CNC(=O)OC(C)(C)C)c2c(C)cc(=O)oc2c1,,inactive: 0.454%
CCOC(=O)c1cnn2c(C)cc(-c3ccccc3)nc12,,inactive: 2.55%
COCCn1c(=O)c(C)nc2cnc(N3CCOCC3)nc21,,inactive: -6.53%
O=C1c2ccccc2C(=O)N1c1nc(-c2cccs2)cs1,"inconclusive: 31.6 µM [inhibitor, single point]",
CCc1[nH]c(=O)c(C#N)c2c1CCCC2,,inactive: 6.4%
COc1cc(C(C[N+](=O)[O-])c2c(-c3ccccc3)cc3ccccn23)cc(OC)c1OC (stereo not drawn),"inconclusive: 5.01 µM [inhibitor, partial curve]",
O=C1CC(=Nc2ccccc2)NN1c1ccccc1,"inconclusive: 15.8 µM [inhibitor, partial curve]",
N#CC1=C(N)NC(SCc2ccc(Cl)cc2)=C(C#N)C12CCCCC2,"inconclusive: 39.8 µM [inhibitor, single point]",
CCCCC(=O)Nc1cc(NC(=O)CCCC)cc(C(=O)O)c1,"inconclusive: 7.94 µM [inhibitor, single point]",
CC(C)C(=O)N1CCN(c2ccccc2NC(=O)c2cccc(Cl)c2)CC1,"inconclusive: 0.316 µM [inhibitor, full curve, poor fit]",
COc1ccc(Nc2cc(C(=O)NCCCN3CCN(C)CC3)c3ccccc3n2)cc1OC,"inconclusive: 39.8 µM [inhibitor, single point]",
CCCCc1ccc(-c2nc(N)n[nH]2)cc1,,inactive: 13.6%
c1ccc(CSc2nnc(-c3ccco3)c(-c3ccco3)n2)cc1,"inconclusive: 6.31 µM [inhibitor, partial curve]",
O=C1CCCC(O)=C1C(C#Cc1ccccc1)C1=C(O)CCCC1=O,"inconclusive: 7.94 µM [inhibitor, partial curve]",

Compound,Potency,"activity change, negative = inhibition"
CCOc1ccc(/C=N/NC(=S)Nc2c(C)cccc2C)cc1,"inconclusive: 12.6 µM [inhibitor, partial curve]",
COc1cc2oc(=O)cc(-c3ccc(-c4cccc(N)c4)cc3)c2c(OC)c1OC,"inconclusive: 31.6 µM [inhibitor, partial curve]",
CC1CCCCC1NC(=S)Nc1ccc(SC(F)F)cc1 (stereo not drawn),"inconclusive: 20 µM [inhibitor, partial curve]",
Cc1ccccc1OCC1CO1 (stereo not drawn),,inactive: -12.4%
CCOC(=O)c1cc(-c2ccccc2)sc1NC(=S)Nc1cc(C)ccn1,active: 10 µM,
COc1ccccc1C(CCN(Cc1cccs1)C(C)=O)c1ccco1 (stereo not drawn),"inconclusive: 25.1 µM [inhibitor, single point]",
COc1cc2c(=O)n(Cc3ccco3)c(=O)n(CC(=O)c3cccc(Br)c3)c2cc1OC,"inconclusive: 20 µM [inhibitor, single point]",
Cc1ccc(-c2c(C)c(-c3ccc(F)cc3)nc(N)c2C#N)o1,"inconclusive: 15.8 µM [inhibitor, partial curve]",
O=C(CN1CC(=O)Oc2ccccc21)OCC(=O)c1ccccc1,,inactive: 24.2%
Nc1ccc(Nc2ccccc2)c(Cl)c1,"inconclusive: 15.8 µM [inhibitor, partial curve]",
O=C(NC(NC(=S)Nc1cccc(Cl)c1)C(Cl)(Cl)Cl)OCc1ccccc1 (stereo not drawn),"inconclusive: 15.8 µM [inhibitor, partial curve]",
Nc1ccc(Nc2nc(-c3ccncc3)cs2)cc1,"inconclusive: 15.8 µM [inhibitor, partial curve]",
CCN1CCN(C(=O)c2cc3c(=O)n(C)c4ccccc4c3n2C)CC1,,inactive: -2.34%
Cc1cc(N=Cc2c(O)ccc3ccccc23)no1,"inconclusive: 12.6 µM [inhibitor, partial curve]",
COc1ccccc1-c1nn2c(-c3ccccc3Cl)nnc2s1,,inactive: -4.08%
CON(c1nc(N(C)C)nc(N(C)C)n1)S(=O)(=O)c1ccccc1Cl,,inactive: -3.2%
CCC1=NNc2cccc3c(OC)ccc1c23,active: 5.01 µM,
O=C(NCCOC(=O)c1ccc(C(=O)OCCNC(=O)c2ccccc2)o1)c1ccccc1,,inactive: -6.48%
O=C(NC1CC1)c1ccc(-c2nc3ccccc3s2)s1,"inconclusive: 0.316 µM [inhibitor, partial curve]",
Cc1n[nH]c(=S)n1/N=C/c1ccc(OCc2ccc(Cl)cc2)cc1,"inconclusive: 5.01 µM [inhibitor, partial curve]",
O=S(=O)(c1ccccc1)c1nc(Nc2ccccc2N2CCOCC2)sc1Cl,"inconclusive: 20 µM [inhibitor, single point]",
CN1CCN(S(=O)(=O)c2ccc(Br)s2)CC1,,inactive: 2.03%
Cc1ccc2oc(=O)c3c4cc(O)c(O)c(C)c4oc3c2c1,"inconclusive: 7.94 µM [inhibitor, partial curve]",
COc1cc(/C=C2\C(=O)ON=C2c2ccccc2)cc(OC)c1OC,"inconclusive: 5.01 µM [inhibitor, partial curve]",
